How the values were obtained:
[1] = target: T1, PD-L2 fuse-expressed with an Fc derived from human IgG1 (human, UniProt Q9BQ51 20-219, limits assumed); assay: SPR Biacore T200
T1 construct: Bought reagent; also called hPD-L2-Fc; not shown: Fc of human IgG1
T1 sequence (looked up): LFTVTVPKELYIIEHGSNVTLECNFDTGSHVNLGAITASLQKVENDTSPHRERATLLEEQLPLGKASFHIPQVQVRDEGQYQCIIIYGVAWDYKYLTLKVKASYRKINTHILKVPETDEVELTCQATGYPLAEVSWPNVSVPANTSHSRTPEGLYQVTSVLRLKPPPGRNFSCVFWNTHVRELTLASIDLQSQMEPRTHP

[2] = target: T2, PD-L1 fuse-expressed with an Fc derived from human IgG1 (human, UniProt Q9NZQ7 fragment); assay: SPR Biacore T200
T2 construct: Bought reagent; also called PD-L1-Fc; hPD-L1-Fc; not shown: Fc of human IgG1

[3] = target: T1, PD-L2 fuse-expressed with an Fc derived …; assay: SPR Biacore T200; PD1-RFc mobile phase
[4] = target: T2, PD-L1 fuse-expressed with an Fc derived …; assay: SPR Biacore T200; PD1-RFc mobile phase

T2 sequence (Q9NZQ7 19-239 limits assumed): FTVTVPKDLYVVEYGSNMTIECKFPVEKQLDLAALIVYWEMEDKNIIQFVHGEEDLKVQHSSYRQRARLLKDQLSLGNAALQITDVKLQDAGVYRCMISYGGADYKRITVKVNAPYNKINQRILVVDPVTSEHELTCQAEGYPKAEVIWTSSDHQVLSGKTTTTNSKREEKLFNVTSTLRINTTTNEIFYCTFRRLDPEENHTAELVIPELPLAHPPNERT

B1: Seq No. 1-RFc (wild-type PD-1 fused to rabbit IgG Fc) (Fc fusion)
chain: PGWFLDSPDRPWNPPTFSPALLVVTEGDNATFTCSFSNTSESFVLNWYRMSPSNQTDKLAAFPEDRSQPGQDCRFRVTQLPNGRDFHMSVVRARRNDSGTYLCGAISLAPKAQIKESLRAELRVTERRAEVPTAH
notes: Amplified with the same primers (P32-For/P32-Rev) as the 155-residue variants; also called PD1-RFc; not shown: rabbit IgG Fc (RFc) of vector pcDNA3.4-RFc
A Kd [1] of 0.000862 µM, a Kd [2] of 8.87 µM and a koff [3] of 0.00351 s⁻¹ were found for B1 in this work. The kon [3] was 4.07e+06 M⁻¹ s⁻¹, the koff [4] was 0.0163 s⁻¹ and the kon [4] was 1840 M⁻¹ s⁻¹.

Source: patent publication US20260272979A1 (CHINEO MEDICAL TECHNOLOGY, published 2026)
